{
  "source": "paper PMC9911399",
  "about": "“Two distinct binding modes provide the RNA-binding protein RbFox with extraordinary sequence specificity”",
  "binders": {"B1": {"name": "UGCGAAC (DNA:RNA)", "RNA": "GGGAGACCGGAAUUCAGAUUGUCCUGCGAACUUAAAUCCCGUCGUAGCCACCA", "DNA 1": "CAATCTGAATTCCGGTCTCCC", "DNA 2": "TGGTGGCTACGACGGGATT"}, "B2": {"name": "ACUUCCU (DNA:RNA)", "RNA": "GGGAGACCGGAAUUCAGAUUGUCCACUUCCUUUAAAUCCCGUCGUAGCCACCA", "DNA 1": "CAATCTGAATTCCGGTCTCCC", "DNA 2": "TGGTGGCTACGACGGGATT"}, "B3": {"name": "ACCUUUA (DNA:RNA)", "RNA": "B2 RNA with U27C, C29U, C30U, U31A", "DNA 1": "CAATCTGAATTCCGGTCTCCC", "DNA 2": "TGGTGGCTACGACGGGATT"}, "B4": {"name": "GAAUAUC (DNA:RNA)", "RNA": "B1 RNA with U25G, G26A, C27A, G28U, A30U", "DNA 1": "CAATCTGAATTCCGGTCTCCC", "DNA 2": "TGGTGGCTACGACGGGATT"}, "B5": {"name": "GCUCGGA (DNA:RNA)", "RNA": "B2 RNA with A25G, U28C, C29G, C30G, U31A", "DNA 1": "CAATCTGAATTCCGGTCTCCC", "DNA 2": "TGGTGGCTACGACGGGATT"}, "B6": {"name": "UGCGGCG (DNA:RNA)", "RNA": "B1 RNA with A29G, A30C, C31G", "DNA 1": "CAATCTGAATTCCGGTCTCCC", "DNA 2": "TGGTGGCTACGACGGGATT"}, "B7": {"name": "UGUUGAG (DNA:RNA)", "RNA": "B1 RNA with C27U, G28U, A29G, C31G", "DNA 1": "CAATCTGAATTCCGGTCTCCC", "DNA 2": "TGGTGGCTACGACGGGATT"}, "B8": {"name": "GCACGGC (DNA:RNA)", "RNA": "B2 RNA with A25G, U27A, U28C, C29G, C30G, U31C", "DNA 1": "CAATCTGAATTCCGGTCTCCC", "DNA 2": "TGGTGGCTACGACGGGATT"}, "B9": {"name": "AGGCCUA (DNA:RNA)", "RNA": "B2 RNA with C26G, U27G, U28C, C30U, U31A", "DNA 1": "CAATCTGAATTCCGGTCTCCC", "DNA 2": "TGGTGGCTACGACGGGATT"}, "B10": {"name": "CACGAUG (DNA:RNA)", "RNA": "B1 RNA with U25C, G26A, A30U, C31G", "DNA 1": "CAATCTGAATTCCGGTCTCCC", "DNA 2": "TGGTGGCTACGACGGGATT"}, "B11": {"name": "CCAUCGG (DNA:RNA)", "RNA": "B2 RNA with A25C, U27A, C30G, U31G", "DNA 1": "CAATCTGAATTCCGGTCTCCC", "DNA 2": "TGGTGGCTACGACGGGATT"}, "B12": {"name": "AGAACAG (DNA:RNA)", "RNA": "B2 RNA with C26G, U27A, U28A, C30A, U31G", "DNA 1": "CAATCTGAATTCCGGTCTCCC", "DNA 2": "TGGTGGCTACGACGGGATT"}, "B13": {"name": "AUUAAUU (DNA:RNA)", "RNA": "B2 RNA with C26U, U28A, C29A, C30U", "DNA 1": "CAATCTGAATTCCGGTCTCCC", "DNA 2": "TGGTGGCTACGACGGGATT"}, "B14": {"name": "CUAUGGC (DNA:RNA)", "RNA": "B2 RNA with A25C, C26U, U27A, C29G, C30G, U31C", "DNA 1": "CAATCTGAATTCCGGTCTCCC", "DNA 2": "TGGTGGCTACGACGGGATT"}, "B15": {"name": "GGAGACC (DNA:RNA)", "RNA": "B1 RNA with U25G, C27A, A30C", "DNA 1": "CAATCTGAATTCCGGTCTCCC", "DNA 2": "TGGTGGCTACGACGGGATT"}, "B16": {"name": "UACCGAG (DNA:RNA)", "RNA": "B1 RNA with G26A, G28C, A29G, C31G", "DNA 1": "CAATCTGAATTCCGGTCTCCC", "DNA 2": "TGGTGGCTACGACGGGATT"}, "B17": {"name": "CCAGAUU (DNA:RNA)", "RNA": "B2 RNA with A25C, U27A, U28G, C29A, C30U", "DNA 1": "CAATCTGAATTCCGGTCTCCC", "DNA 2": "TGGTGGCTACGACGGGATT"}, "B18": {"name": "GGGCCGU (DNA:RNA)", "RNA": "B2 RNA with A25G, C26G, U27G, U28C, C30G", "DNA 1": "CAATCTGAATTCCGGTCTCCC", "DNA 2": "TGGTGGCTACGACGGGATT"}, "B19": {"name": "GGUUUGA (DNA:RNA)", "RNA": "B2 RNA with A25G, C26G, C29U, C30G, U31A", "DNA 1": "CAATCTGAATTCCGGTCTCCC", "DNA 2": "TGGTGGCTACGACGGGATT"}, "B20": {"name": "AUAGUAA (DNA:RNA)", "RNA": "B1 RNA with U25A, G26U, C27A, A29U, C31A", "DNA 1": "CAATCTGAATTCCGGTCTCCC", "DNA 2": "TGGTGGCTACGACGGGATT"}, "B21": {"name": "CCGUGUC (DNA:RNA)", "RNA": "B2 RNA with A25C, U27G, C29G, C30U, U31C", "DNA 1": "CAATCTGAATTCCGGTCTCCC", "DNA 2": "TGGTGGCTACGACGGGATT"}, "B22": {"name": "UGCCUCG (DNA:RNA)", "RNA": "B1 RNA with G28C, A29U, A30C, C31G", "DNA 1": "CAATCTGAATTCCGGTCTCCC", "DNA 2": "TGGTGGCTACGACGGGATT"}, "B23": {"name": "GGCAUUC (DNA:RNA)", "RNA": "B1 RNA with U25G, G28A, A29U, A30U", "DNA 1": "CAATCTGAATTCCGGTCTCCC", "DNA 2": "TGGTGGCTACGACGGGATT"}, "B24": {"name": "GUUGGAG (DNA:RNA)", "RNA": "B1 RNA with U25G, G26U, C27U, A29G, C31G", "DNA 1": "CAATCTGAATTCCGGTCTCCC", "DNA 2": "TGGTGGCTACGACGGGATT"}, "B25": {"name": "GCCAAAG (DNA:RNA)", "RNA": "B1 RNA with U25G, G26C, G28A, C31G", "DNA 1": "CAATCTGAATTCCGGTCTCCC", "DNA 2": "TGGTGGCTACGACGGGATT"}, "B26": {"name": "CGGCCGU (DNA:RNA)", "RNA": "B2 RNA with A25C, C26G, U27G, U28C, C30G", "DNA 1": "CAATCTGAATTCCGGTCTCCC", "DNA 2": "TGGTGGCTACGACGGGATT"}, "B27": {"name": "CUCACCG (DNA:RNA)", "RNA": "B2 RNA with A25C, C26U, U27C, U28A, U31G", "DNA 1": "CAATCTGAATTCCGGTCTCCC", "DNA 2": "TGGTGGCTACGACGGGATT"}, "B28": {"name": "AUUUAUU (DNA:RNA)", "RNA": "B2 RNA with C26U, C29A, C30U", "DNA 1": "CAATCTGAATTCCGGTCTCCC", "DNA 2": "TGGTGGCTACGACGGGATT"}, "B29": {"name": "GCACGCA (DNA:RNA)", "RNA": "B2 RNA with A25G, U27A, U28C, C29G, U31A", "DNA 1": "CAATCTGAATTCCGGTCTCCC", "DNA 2": "TGGTGGCTACGACGGGATT"}, "B30": {"name": "GCCAGAA (DNA:RNA)", "RNA": "B1 RNA with U25G, G26C, G28A, A29G, C31A", "DNA 1": "CAATCTGAATTCCGGTCTCCC", "DNA 2": "TGGTGGCTACGACGGGATT"}, "B31": {"name": "UACGCGG (DNA:RNA)", "RNA": "B1 RNA with G26A, A29C, A30G, C31G", "DNA 1": "CAATCTGAATTCCGGTCTCCC", "DNA 2": "TGGTGGCTACGACGGGATT"}},
  "note": "Substitutions are numbered along the chain they refer to; changes in the protein carry UniProt numbers. Some of the results follow.",
  "data": [
    {"target": "T1, RBFOX1 RRM (Homo sapiens, UniProt Q9NWB1 109-208)", "T1 sequence": "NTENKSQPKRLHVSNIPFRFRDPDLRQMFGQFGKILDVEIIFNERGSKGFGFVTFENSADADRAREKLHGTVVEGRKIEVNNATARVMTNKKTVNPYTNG", "assay": "EMSA; HiTS-Eq, 1 nM pool, 10 min; buffer printed only for the single-RNA assays: 10 mM Tris pH 7.5, 150 mM NaCl, 3.4 mM EDTA, 0.001% NP-40, 30 C", "conditions": "tags: His6 N-terminal (pET28a); label: 5' 32P", "method_in_brief": "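Purified RbFox RRM, wild type or mutant, was incubated for 10 min in 50 µL with 1 nM of a 5′-radiolabelled RNA pool carrying 7 randomized nucleotides, whose flanks were annealed to DNA oligonucleotides, over a series of increasing protein concentrations. Unbound RNA was resolved on 8% native PAGE, cut out, reverse-transcribed, barcoded by PCR and sequenced on an Illumina HiSeq 2500. Relative association constants were derived from changes in read counts for each RNA species versus the control reaction and normalised to the cognate motif.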", "values": [
      {"binder": "B1", "binding signal": "0.0141 KA relative to UGCAUGU"},
      {"binder": "B2", "binding signal": "0.00215 KA relative to UGCAUGU"},
      {"binder": "B3", "binding signal": "0.00173 KA relative to UGCAUGU"},
      {"binder": "B4", "binding signal": "0.00604 KA relative to UGCAUGU"},
      {"binder": "B5", "binding signal": "0.0169 KA relative to UGCAUGU"},
      {"binder": "B6", "binding signal": "0.0232 KA relative to UGCAUGU"},
      {"binder": "B7", "binding signal": "0.0304 KA relative to UGCAUGU"},
      {"binder": "B8", "binding signal": "0.0257 KA relative to UGCAUGU"},
      {"binder": "B9", "binding signal": "0.00424 KA relative to UGCAUGU"},
      {"binder": "B10", "binding signal": "0.00624 KA relative to UGCAUGU"},
      {"binder": "B11", "binding signal": "0.0083 KA relative to UGCAUGU"},
      {"binder": "B12", "binding signal": "0.00292 KA relative to UGCAUGU"},
      {"binder": "B13", "binding signal": "0.00238 KA relative to UGCAUGU"},
      {"binder": "B14", "binding signal": "0.0113 KA relative to UGCAUGU"},
      {"binder": "B15", "binding signal": "0.0127 KA relative to UGCAUGU"},
      {"binder": "B16", "binding signal": "0.00817 KA relative to UGCAUGU"},
      {"binder": "B17", "binding signal": "0.00446 KA relative to UGCAUGU"},
      {"binder": "B18", "binding signal": "0.0153 KA relative to UGCAUGU"},
      {"binder": "B19", "binding signal": "0.0285 KA relative to UGCAUGU"},
      {"binder": "B20", "binding signal": "0.00255 KA relative to UGCAUGU"},
      {"binder": "B21", "binding signal": "0.0124 KA relative to UGCAUGU"},
      {"binder": "B22", "binding signal": "0.0235 KA relative to UGCAUGU"},
      {"binder": "B23", "binding signal": "0.0151 KA relative to UGCAUGU"},
      {"binder": "B24", "binding signal": "0.0099 KA relative to UGCAUGU"},
      {"binder": "B25", "binding signal": "0.00764 KA relative to UGCAUGU"},
      {"binder": "B26", "binding signal": "0.0175 KA relative to UGCAUGU"},
      {"binder": "B27", "binding signal": "0.00326 KA relative to UGCAUGU"},
      {"binder": "B28", "binding signal": "0.00187 KA relative to UGCAUGU"},
      {"binder": "B29", "binding signal": "0.0261 KA relative to UGCAUGU"},
      {"binder": "B30", "binding signal": "0.0129 KA relative to UGCAUGU"},
      {"binder": "B31", "binding signal": "0.0108 KA relative to UGCAUGU"}
    ]}
  ]
}
